# Measured values as given in the supplement of paper PMC12217912.
# The list shows a part of the results. Sequences were assembled here from the parent chain. Values near 0.05 are background.
# B1: TEV protease; numbered along this chain (parent)
# chain: MGESLFKGPRDYNPISSSICHLTNESDGHTTSLYGIGFGPFIITNKHLFRRNNGTLVVQSLHGVFKVKDTTTLQQHLVDGRDMIIIRMPKDFPPFPQKLKFREPQREERICLVTTNFQTKSMSSMVSDTSCTFPSGDGIFWKHWIQTKDGQCGSPLVSTRDGFIVGIHSASNFTNTNNYFTSVPKNFMELLTNQEAQQWVSGWRLNADSVLWGGHKVFMVKPEEPFQPVKEATQL
# Variants of: B1
# Assay: raw area under fraction-flipped curve 0-4 h after induction (AUC4h, not background-subtracted), DNA-recorder readout of cleavage of the substrate (dimensionless); higher = more cleavage of the substrate by the protease variant
# Details: temperature: 34 °C; time window: 0-4 h after rhamnose induction
# Method: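 In vivo DNA recorder in E. coli TOP10(DE3) ΔrhaA at 34 °C. Each TEVp single-site mutant (parent TEVp 0) is paired with a single-site variant of the 7-mer TEVs (canonical ENLYFQ|S). The substrate sits between flexible linkers in a Bxb1-sfGFP-TEVs-SsrA fusion, so cleavage stabilises Bxb1 and speeds flipping of a recombination array, read by NGS. The value is the raw area under the fraction-flipped curve over 0-4 h after rhamnose induction (AUC4h), with ≥20 reads per time point. It is not background-subtracted; inactive controls average about 0.047.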
# 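Further: Bxb1 expression induced with 0.2% (w/v) L-rhamnose at OD600 near 0.5, cultures sampled hourly, flipped fraction per protease–substrate barcode pair counted by paired-end Illumina sequencing.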
Variant,area with substrate ENAYFQS,area with substrate ENCYFQS,area with substrate ENDYFQS,area with substrate ENEYFQS,area with substrate ENFYFQS,area with substrate ENHYFQS,area with substrate ENNYFQS,area with substrate ENPYFQS,area with substrate ENRYFQS,area with substrate ENSYFQS,area with substrate ENGYFQS,area with substrate ENIYFQS,area with substrate ENMYFQS,area with substrate ENVYFQS,area with substrate ENYYFQS,area with substrate ENTYFQS,area with substrate ENKYFQS,area with substrate ENQYFQS,area with substrate ENWYFQS
G8K,0.0564,0.0628,0.0698,0.0513,0.0619,0.0563,0.0556,0.0464,0.0439,0.0474,–,–,–,–,–,–,–,–,–
G8A,0.0417,–,0.0618,0.0541,0.0506,–,–,0.0776,–,0.0577,0.0722,0.116,0.0794,0.0595,–,–,–,–,–
G8D,0.0549,–,–,–,–,–,–,–,0.0551,–,–,–,–,0.0687,0.0615,–,–,–,–
G8F,0.0708,0.072,0.102,0.0677,–,0.048,–,–,–,–,0.0344,–,–,0.111,–,0.0645,–,–,–
G8P,0.0479,–,0.0512,–,0.0403,0.0553,–,0.0536,–,–,–,–,–,0.0875,–,–,0.0527,–,–
T23P,0.0405,0.0379,0.0307,0.0427,0.0413,0.0626,0.0358,0.0514,0.0508,–,0.0405,0.0403,–,0.0357,0.0557,0.0373,–,0.0493,–
S4D,0.0569,0.069,0.0553,0.0618,0.059,0.0551,–,0.0566,0.0605,0.0473,0.0639,0.128,0.0046,0.0872,–,0.0573,–,0.0553,0.0024
N24Q,0.0657,–,0.064,0.0627,0.0629,0.0448,0.0578,0.0683,0.0701,0.0603,0.0631,0.116,–,0.082,–,0.0438,0.0631,0.0675,–
N24W,0.0639,0.067,0.0534,0.0628,0.0708,0.0597,–,0.0647,0.0708,0.0602,0.0592,–,0.029,–,0.0595,0.0663,0.0341,0.0467,–
N24T,0.058,0.0593,0.0556,0.0611,–,–,–,0.0693,0.0522,–,0.0548,0.0747,0.0607,–,0.0493,–,0.062,0.0624,0.0579
N24R,0.0591,0.0574,0.103,–,0.085,0.0553,0.107,0.0744,0.0557,0.0631,0.0569,0.0598,0.062,–,–,–,0.059,0.062,–
N24H,0.0571,–,0.0535,–,0.0542,–,–,–,0.0573,0.0576,–,0.0895,0.0721,0.0588,0.0867,0.0416,0.0519,0.0565,–
N24C,0.059,–,0.0392,–,–,0.0536,0.0622,0.0632,0.0625,0.0663,0.0059,–,0.0734,0.0734,0.0474,–,0.056,0.0647,0.0577
N24Y,0.0688,0.0735,0.0683,0.0578,–,0.0595,–,–,–,0.0717,0.0596,–,–,0.0968,0.0596,0.072,0.0623,0.073,0.03
D27P,0.0631,0.0803,0.0755,0.063,0.0409,–,–,0.0579,0.0592,0.0596,0.0606,0.105,–,0.085,0.0539,0.0452,0.0641,0.0671,0.0618
N13W,0.0639,0.0665,0.0587,0.0521,0.0491,0.0584,0.0573,–,–,0.0648,0.0595,0.0846,0.0788,0.0695,0.0524,0.079,–,0.0429,0.0523
N13S,0.0623,–,0.0654,0.077,0.0653,0.0391,0.0601,0.0581,0.0523,0.0581,0.059,0.0833,0.0836,0.0697,0.0622,0.0662,0.0535,0.0592,–
N13T,0.0583,0.0781,0.051,0.0658,0.0717,0.0581,0.051,0.0498,0.0539,0.0677,0.0702,–,0.08,0.0595,0.0128,0.0824,0.063,0.0633,–
N13V,0.0679,0.0661,0.0619,0.0598,0.0599,0.0594,0.0644,0.0498,0.0541,0.063,0.0691,0.1,0.0685,0.0857,–,0.0592,0.0621,0.0575,–
R10K,0.0624,0.0647,0.0349,0.0608,0.056,0.0623,–,0.0647,0.0629,0.0542,0.054,0.0968,–,0.0766,0.0579,0.0617,0.063,0.0646,0.0503
R10S,0.0513,0.0628,0.0664,0.0631,0.0465,0.056,–,0.07,0.0688,0.0636,0.0587,0.102,–,0.0777,0.049,0.0699,0.0522,0.0601,0.0489
H21P,0.0519,0.0451,0.052,0.0524,0.0487,0.0491,0.0608,0.052,0.0364,0.0517,0.0443,0.0624,0.0499,0.0662,–,0.0513,0.0104,0.051,–
I19R,0.0545,0.049,0.05,0.0567,0.047,0.0443,0.0468,–,0.0766,0.0524,0.0503,0.0605,–,0.0466,0.0262,0.0422,0.0497,0.0644,0.0555
T30S,0.057,0.0504,0.0561,0.0622,0.0559,0.0668,0.0676,0.0532,–,0.0667,0.0574,0.13,0.103,0.0793,0.0607,0.0601,0.0516,0.0856,0.0374
T30C,0.0766,0.069,0.0756,0.0578,0.0571,0.0617,0.0592,0.0452,0.0545,0.0611,0.0745,0.134,0.097,0.0733,0.0541,0.0548,–,0.0563,0.04
